Source: the supplement of paper PMC8728848
The other results are listed elsewhere or left out.

Legend:
Experiment in all cases: glycan array binding signal (z-score within array); higher = stronger binding
Conditions in all cases: glycan notation: IUPAC condensed, linker removed
GalNAc(b1-4)GlcNAc = target: GalNAc(b1-4)GlcNAc
Method in brief: (§1)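 Columns mapping to the same glycan were averaged after glycan names were converted to IUPAC-condensed notation. The data come from 3228 arrays in the Consortium for Functional Glycomics database, limited to those with an available protein sequence. Binding is reported as a within-array Z-score averaged across arrays of one protein sequence and across linkers.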

[1] = target: GalNAc(b1-4)GlcNAc(b1-2)Man
Method in brief: as §1

[2] = target: GalNAc(b1-4)GlcNAc(b1-2)Man(a1-3)[GalNAc(b1-4)GlcNAc(b1-2)Man(a1-6)]Man(b1-4)GlcNAc(b1-4)GlcNAc
Method in brief: as §1

[3] = target: GalNAc(b1-4)GlcNAc(b1-3)GalNAc(b1-4)GlcNAc
Method in brief: as §1

GalNAc(b1-4)GlcNAc6S = target: GalNAc(b1-4)GlcNAc6S
Method in brief: as §1

GalNAc(b1-6)GalNAc = target: GalNAc(b1-6)GalNAc
Method in brief: as §1

GalNAc3S(b1-4)GlcNAc = target: GalNAc3S(b1-4)GlcNAc
Method in brief: as §1

GalNAc3S(b1-4)GlcNAc3S = target: GalNAc3S(b1-4)GlcNAc3S
Method in brief: as §1

[4] = target: GalNAc3S(b1-4)[Fuc(a1-3)]GlcNAc
Method in brief: as §1

GalNAc4S6S(b1-4)GlcNAc = target: GalNAc4S6S(b1-4)GlcNAc
Method in brief: as §1

GalNAc6S(b1-4)GlcNAc = target: GalNAc6S(b1-4)GlcNAc
Method in brief: as §1

Glc(a1-4)Glc = target: Glc(a1-4)Glc
Method in brief: as §1

[5] = target: Glc(a1-4)Glc(a1-4)Glc(a1-4)Glc
Method in brief: as §1

Glc(a1-6)Glc(a1-6)Glc = target: Glc(a1-6)Glc(a1-6)Glc
Method in brief: as §1

[6] = target: Glc(a1-6)Glc(a1-6)Glc(a1-6)Glc
Method in brief: as §1

Glc(b1-4)Glc = target: Glc(b1-4)Glc
Method in brief: as §1

Glc(b1-6)Glc = target: Glc(b1-6)Glc
Method in brief: as §1

GlcA(b1-3)Gal = target: GlcA(b1-3)Gal
Method in brief: as §1

GlcA(b1-3)GlcNAc = target: GlcA(b1-3)GlcNAc
Method in brief: as §1

GlcA(b1-6)Gal = target: GlcA(b1-6)Gal
Method in brief: as §1

[7] = target: GlcA3S(b1-3)Gal(b1-4)GlcNAc(b1-2)Man
Method in brief: as §1

[8] = target: GlcA3S(b1-3)Gal(b1-4)GlcNAc(b1-3)Gal(b1-4)Glc
Method in brief: as §1

[9] = target: GlcNAc(a1-3)Gal(b1-4)GlcNAc
Method in brief: as §1

[10] = target: GlcNAc(a1-4)Gal(b1-3)GlcNAc
Method in brief: as §1

[11] = target: GlcNAc(a1-4)Gal(b1-4)GalNAc
Method in brief: as §1

[12] = target: GlcNAc(a1-4)Gal(b1-4)GlcNAc
Method in brief: as §1

[13] = target: GlcNAc(a1-4)Gal(b1-4)GlcNAc(b1-3)Gal(b1-4)Glc
Method in brief: as §1

[14] = target: GlcNAc(a1-4)Gal(b1-4)GlcNAc(b1-3)Gal(b1-4)GlcNAc
Method in brief: as §1

[15] = target: GlcNAc(a1-4)Gal(b1-4)GlcNAc(b1-3)Gal(b1-4)GlcNAc(b1-3)Gal(b1-4)GlcNAc
Method in brief: as §1

[16] = target: GlcNAc(a1-4)Gal(b1-4)GlcNAc(b1-3)Gal(b1-4)[Fuc(a1-3)]GlcNAc(b1-3)Gal(b1-4)[Fuc(a1-3)]GlcNAc
Method in brief: as §1

[17] = target: GlcNAc(a1-6)Gal(b1-4)GlcNAc
Method in brief: as §1

[18] = target: GlcNAc(b1-2)Gal(b1-3)GalNAc
Method in brief: as §1

[19] = target: GlcNAc(b1-2)Man(a1-3)[GlcNAc(b1-2)Man(a1-6)]Man(b1-4)GlcNAc(b1-4)GlcNAc
Method in brief: as §1

[20] = target: GlcNAc(b1-2)Man(a1-3)[GlcNAc(b1-2)Man(a1-6)]Man(b1-4)GlcNAc(b1-4)[Fuc(a1-6)]GlcNAc
Method in brief: as §1

[21] = target: GlcNAc(b1-2)Man(a1-3)[GlcNAc(b1-4)][GlcNAc(b1-2)Man(a1-6)]Man(b1-4)GlcNAc(b1-4)GlcNAc
Method in brief: as §1

[22] = target: GlcNAc(b1-2)Man(a1-3)[GlcNAc(b1-4)][GlcNAc(b1-2)Man(a1-6)]Man(b1-4)GlcNAc(b1-4)[Fuc(a1-6)]GlcNAc
Method in brief: as §1

[23] = target: GlcNAc(b1-2)[GlcNAc(b1-4)]Man(a1-3)[GlcNAc(b1-2)Man(a1-6)]Man(b1-4)GlcNAc(b1-4)GlcNAc
Method in brief: as §1

[24] = target: GlcNAc(b1-2)[GlcNAc(b1-4)]Man(a1-3)[GlcNAc(b1-4)][GlcNAc(b1-2)Man(a1-6)]Man(b1-4)GlcNAc(b1-4)GlcNAc
Method in brief: as §1

[25] = target: GlcNAc(b1-2)[GlcNAc(b1-4)]Man(a1-3)[GlcNAc(b1-4)][GlcNAc(b1-2)[GlcNAc(b1-6)]Man(a1-6)]Man(b1-4)GlcNAc(b1-4)GlcNAc
Method in brief: as §1

[26] = target: GlcNAc(b1-2)[GlcNAc(b1-4)]Man(a1-3)[GlcNAc(b1-4)][GlcNAc(b1-2)[GlcNAc(b1-6)]Man(a1-6)]Man(b1-4)GlcNAc(b1-4)[Fuc(a1-6)]GlcNAc
Method in brief: as §1

[27] = target: GlcNAc(b1-2)[GlcNAc(b1-6)]Man(a1-6)[GlcNAc(b1-2)Man(a1-3)]Man(b1-4)GlcNAc(b1-4)GlcNAc
Method in brief: as §1

[28] = target: GlcNAc(b1-2)[GlcNAc(b1-6)]Man(a1-6)[GlcNAc(b1-2)Man(a1-3)]Man(b1-4)GlcNAc(b1-4)[Fuc(a1-6)]GlcNAc
Method in brief: as §1

[29] = target: GlcNAc(b1-2)[GlcNAc(b1-6)]Man(a1-6)[GlcNAc(b1-4)][GlcNAc(b1-2)Man(a1-3)]Man(b1-4)GlcNAc(b1-4)GlcNAc
Method in brief: as §1

GlcNAc(b1-3)Fuc = target: GlcNAc(b1-3)Fuc
Method in brief: as §1

GlcNAc(b1-3)Gal = target: GlcNAc(b1-3)Gal
Method in brief: as §1

B1: AFCNVH (Aspergillus fumigatus) (protein)
chain: MSLRGFHTTCDTIVLKDKHILSSRCKRPDGTYSFSEIDLNDCLGNNNGKFVWGGESFVDSASQVNLALEGGEGRPMLHAQLNDWHGSVQSASVNLGECIQNEAGGLEYMHC
GalNAc(b1-4)GlcNAc
  glycan array binding signal (z-score): 2.36
[1]
  glycan array binding signal (z-score): 4.18
[2]
  glycan array binding signal (z-score): 4.08
[3]
  glycan array binding signal (z-score): 2.66
GalNAc(b1-4)GlcNAc6S
  glycan array binding signal (z-score): 1.24
GalNAc(b1-6)GalNAc
  glycan array binding signal (z-score): 1.85
GalNAc3S(b1-4)GlcNAc
  glycan array binding signal (z-score): 1.43
GalNAc3S(b1-4)GlcNAc3S
  glycan array binding signal (z-score): -0.384
[4]
  glycan array binding signal (z-score): -0.504
GalNAc4S6S(b1-4)GlcNAc
  glycan array binding signal (z-score): -0.38
GalNAc6S(b1-4)GlcNAc
  glycan array binding signal (z-score): 2.51
Glc(a1-4)Glc
  glycan array binding signal (z-score): -0.359
[5]
  glycan array binding signal (z-score): -0.23
Glc(a1-6)Glc(a1-6)Glc
  glycan array binding signal (z-score): -0.33
[6]
  glycan array binding signal (z-score): -0.322
Glc(b1-4)Glc
  glycan array binding signal (z-score): -0.467
Glc(b1-6)Glc
  glycan array binding signal (z-score): -0.486
GlcA(b1-3)Gal
  glycan array binding signal (z-score): -0.316
GlcA(b1-3)GlcNAc
  glycan array binding signal (z-score): -0.37
GlcA(b1-6)Gal
  glycan array binding signal (z-score): 0.806
[7]
  glycan array binding signal (z-score): -0.444
[8]
  glycan array binding signal (z-score): -0.227
[9]
  glycan array binding signal (z-score): 4.61
[10]
  glycan array binding signal (z-score): 0.937
[11]
  glycan array binding signal (z-score): 0.934
[12]
  glycan array binding signal (z-score): 2.91
[13]
  glycan array binding signal (z-score): 3.99
[14]
  glycan array binding signal (z-score): 3.13
[15]
  glycan array binding signal (z-score): 2.39
[16]
  glycan array binding signal (z-score): 2.77
[17]
  glycan array binding signal (z-score): -0.469
[18]
  glycan array binding signal (z-score): 1.9
[19]
  glycan array binding signal (z-score): -0.164
[20]
  glycan array binding signal (z-score): -0.195
[21]
  glycan array binding signal (z-score): 4.58
[22]
  glycan array binding signal (z-score): 1.8
[23]
  glycan array binding signal (z-score): 0.011
[24]
  glycan array binding signal (z-score): 1.86
[25]
  glycan array binding signal (z-score): 1.07
[26]
  glycan array binding signal (z-score): 0.174
[27]
  glycan array binding signal (z-score): -0.203
[28]
  glycan array binding signal (z-score): -0.265
[29]
  glycan array binding signal (z-score): 1.77
GlcNAc(b1-3)Fuc
  glycan array binding signal (z-score): 1.21
GlcNAc(b1-3)Gal
  glycan array binding signal (z-score): -0.331
